# Laboratory results reported in PubChem BioAssay (Tox21).
# Values joined by “and” are separate entries in the source; they are usually repeats but may differ in a detail not shown here. Identical values can stand only once. Some structures have more than one record in an assay (separate samples or runs), and their calls can disagree. Active and inactive are the calls of the source. Unless noted, calls come from the whole dose curve; as a rule, active = well fitted curve in the direction sought with a large enough effect in the repeat runs; inconclusive = weak or mixed curves; inactive = no such curve, though single readings can be large; an effect the other way counts as inactive or inconclusive.
# Key:
# [1] = qHTS assay for small molecule agonists of the p53 signaling pathway (AID 651631; calls by dose curve; note: nearly all actives have a fitted effect of over 15% in size; for activation: % is set by controls: 0 for no effect and ±100 for the full control effect); settings: HCT-116 p53RE-bla reporter, beta-lactamase FRET ratio, 16 h; activation: at 73.3 µM (top of the series) unless noted
# Summary of the method: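 Read-out is beta-lactamase FRET fluorescence measured 2 h after substrate addition at room temperature, in HCT-116 cells with a p53 response element-driven reporter exposed to compounds for 16 h at 37 °C.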
# [2] = qHTS assay for small molecule disruptors of the mitochondrial membrane potential (AID 720635); settings: HepG2 mitochondrial membrane potential, Mito-MPS dye ratio; ratio activity, negative = MMP loss: at 83.2 µM (top of the series) unless noted; for ratio activity, negative = MMP loss: % is set by controls: 0 for no effect and ±100 for the full control effect
# Summary of the method: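 HepG2 cells exposed to compound 1 hr at 37C, then Mito-MPS dye 30 min. Ratio read of aggregate (540/590 nm) versus monomer (490/535 nm) fluorescence.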
# [3] = molecular target: Glucocorticoid receptor (Homo sapiens) (UniProt P04150); experiment: qHTS assay to identify small molecule antagonists of the glucocorticoid receptor (GR) signaling pathway (AID 720692; active = well fitted inhibition curve with a large enough effect in the signal ratio in the repeat runs, not every such curve was filed as active; inconclusive = weak or mixed curves, or effect the other way; inactive = no such curve, though single readings can be large or run the other way; the % refers to the signal ratio; for activity change, negative = inhibition: % is set by controls: 0 for no effect and ±100 for the full control effect); settings: GR-bla HeLa, beta-lactamase FRET ratio, dexamethasone-stimulated, 18 h; activity change, negative = inhibition: at 58.5 µM (top of the series) unless noted
# Summary of the method: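 Read-out: beta-lactamase FRET substrate fluorescence, 2 h at room temperature, in HeLa cells stably carrying a GRE-driven bla reporter. Compounds were co-incubated with 5 nM dexamethasone agonist (final) for 18 h at 37 C.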
# [4] = molecular target: Glucocorticoid receptor (Homo sapiens) (UniProt P04150); experiment: qHTS assay to identify small molecule agonists of the glucocorticoid receptor (GR) signaling pathway (AID 720691; active = well fitted activation curve with a large enough effect in the signal ratio in the repeat runs, not every such curve was filed as active; inconclusive = weak or mixed curves, or effect the other way; inactive = no such curve, though single readings can be large or run the other way; the % refers to the signal ratio); settings: GR-bla HeLa, beta-lactamase reporter ratio, 18 h; activation: at 62.4 µM (top of the series) unless noted
# Summary of the method: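 HeLa GR-bla reporter line; cells pre-incubated 4 h, compound in DMSO 18 h at 37 C; LiveBLAzer B/G FRET substrate 2 h RT; fluorescence intensity read-out.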
# [5] = qHTS assay for small molecules that induce genotoxicity in human embryonic kidney cells expressing luciferase-tagged ATAD5 (AID 651632); note: nearly all actives have a fitted effect of over 15% in size; for activation: % is set by controls: 0 for no effect and ±100 for the full control effect
# Summary of the method: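 Luminescence read-out: after 16 hr compound exposure at 37C, ATAD5-luciferase HEK293T cells received Amplite, 30 min RT, then CCD imaging. A rise in signal marks genotoxic stress.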
# [6] = qHTS assay to test for compound auto fluorescence at 460 nm (blue) in HEK293 cells (AID 720678)
# Summary of the method: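 Intrinsic compound fluorescence is recorded in live HEK293 cultures after overnight incubation at 37C, 5% CO2, using excitation 405 nm and emission 460 nm. Values are referenced to triamterene.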
# [7] = qHTS assay to identify small molecule antagonists of the glucocorticoid receptor (GR) signaling pathway - cell viability counter screen (AID 720693); settings: GR-bla HeLa viability, CellTiter-Glo luminescence, 18 h, with 5 nM dexamethasone present; viability change, negative = cytotoxic: at 58.5 µM (top of the series); note: nearly all actives have a fitted effect of over 55% in size
# [8] = qHTS assay for small molecules that induce genotoxicity in human embryonic kidney cells expressing luciferase-tagged ATAD5 - cell viability (AID 651634; calls by dose curve; note: nearly all actives have a fitted effect of over 25% in size)
# Summary of the method: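 HEK293T ATAD5-luc cells, 2,000/well; compound 15.5 hr, 37C/5% CO2; CellTiter-Fluor 30 min, 37C; fluorescence read.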
# [9] = qHTS assay for small molecule disruptors of the mitochondrial membrane potential - cell viability (AID 720634; calls by dose curve; note: nearly all actives have a fitted effect of over 20% in size)
# Summary of the method: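 Luminescence from CellTiter-Glo (ATP content) gave viability in HepG2 cells, read in the same wells as the MMP dye assay after 1 hr compound exposure at 37 C.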
# [10] = qHTS assay for small molecule agonists of the p53 signaling pathway - cell viability (AID 651633; calls by dose curve; note: nearly all actives have a fitted effect of over 30% in size)
# Summary of the method: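 p53RE-bla cells were treated with compound for 16 hours at 37 C. Cytotoxicity was then measured as CellTiter-Glo luminescence after 30 min at room temperature.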
# [11] = qHTS assay to test for compound auto fluorescence at 535 nm (green) in HEK293 cells (AID 720680)
# [12] = qHTS assay to test for compound auto fluorescence at 535 nm (green) in HEK293 cell free culture (AID 720682); settings: cell-free medium, green autofluorescence 485/535 nm
# Summary of the method: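 Fluorescein serves as the green reference fluorophore; each compound's intrinsic emission at 535 nm (excitation 485 nm) is reported as an equivalent amount of that dye, measured in serum-containing DMEM without cells.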
# Potency is the fitted concentration of half-maximal effect; tags give direction and shape of the fitted curve or compound fluorescence and quenching.
# Sequence of UniProt P04150 (P04150 whole entry, looked up): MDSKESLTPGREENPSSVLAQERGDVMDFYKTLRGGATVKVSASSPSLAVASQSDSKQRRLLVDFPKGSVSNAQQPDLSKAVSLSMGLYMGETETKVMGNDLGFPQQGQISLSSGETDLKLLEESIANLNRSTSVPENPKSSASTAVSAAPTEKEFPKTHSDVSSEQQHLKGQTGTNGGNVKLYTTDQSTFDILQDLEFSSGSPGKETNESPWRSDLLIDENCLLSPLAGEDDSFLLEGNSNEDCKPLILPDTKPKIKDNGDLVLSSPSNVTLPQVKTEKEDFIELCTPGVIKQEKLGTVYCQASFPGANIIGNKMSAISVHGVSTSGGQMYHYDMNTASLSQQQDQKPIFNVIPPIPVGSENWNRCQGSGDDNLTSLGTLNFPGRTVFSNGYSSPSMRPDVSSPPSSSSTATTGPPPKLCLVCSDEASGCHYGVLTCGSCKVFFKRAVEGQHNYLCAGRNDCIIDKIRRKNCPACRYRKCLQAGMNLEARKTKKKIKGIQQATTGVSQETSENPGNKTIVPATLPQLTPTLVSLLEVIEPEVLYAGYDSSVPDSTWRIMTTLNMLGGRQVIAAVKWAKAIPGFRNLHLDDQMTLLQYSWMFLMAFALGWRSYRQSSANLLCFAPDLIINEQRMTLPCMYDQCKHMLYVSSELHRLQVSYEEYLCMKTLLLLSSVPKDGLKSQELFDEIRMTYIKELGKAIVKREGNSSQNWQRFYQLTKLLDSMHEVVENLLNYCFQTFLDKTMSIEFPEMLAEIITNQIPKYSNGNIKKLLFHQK
smiles,measurement,setting,value
CC1CN(c2ccccc2)NC1=O (configuration not stated),Potency,[1],"inconclusive: 43.3 µM [rising, partial curve, poor fit]"
same,"ratio activity, negative = MMP loss",[2],inconclusive: 13.6%
same,Potency,[3],"inconclusive: 19.5 µM [activator, full curve, poor fit]"
O=C(NOCC1CC1)c1ccc(F)c(F)c1Nc1ccc(I)cc1Cl,Potency,[1],active: 11.9 µM
same,Potency,[2],active: 8.41 µM
same,Potency,[4],"inconclusive: 26.8 µM [cytotoxic, single point]"
same,Potency,[3],active: 10.7 µM
N[C@@H](C(=O)N[C@@H]1C(=O)N2C(C(=O)O)=C(Cl)CS[C@H]12)c1ccccc1,Potency,[1],inactive
same,"ratio activity, negative = MMP loss",[2],inconclusive: 27.2%
same,"activity change, negative = inhibition",[3],inconclusive: -0.897%
CCOc1ccc2[nH]cc(C(=O)NCc3ccccc3)c(=O)c2n1,Potency,[5],inactive
CC[N+](C)(CC)CCOC(=O)C1c2ccccc2Oc2ccccc21,Potency,[5],"inconclusive: 11.9 µM [activator, partial curve, poor fit]"
Cc1ccc(N)cc1O,activation,[1],inconclusive: 4.91%
same,Potency,[6],"inconclusive: 31.6 µM [fluorescent, partial curve, poor fit]"
same,Potency,[3],"inconclusive: 0.155 µM [falling, full curve, poor fit]"
CC(C(O)c1ccccc1)N(C)CCOC(c1ccccc1)c1ccccc1 (configuration not stated),Potency,[1],"inconclusive: 0.119 µM [activator, single point]"
same,Potency,[2],"inconclusive: 11.9 µM [falling, partial curve, poor fit]"
same,"activity change, negative = inhibition",[3],inconclusive: -30.4%
same,Potency,[7],inactive
CC=C(Cl)Cl,Potency,[1],inactive
same,Potency,[6],inactive
same,"activity change, negative = inhibition",[3],inconclusive: 32.9%
S=C1NC=NC2N=CNC12 (configuration not stated),Potency,[1],active: 3.44 µM
same,Potency,[7],"inconclusive: 4.37 µM [cytotoxic, full curve]"
CCCCN(CCCC)c1ccc(C(=O)c2ccccc2C(=O)O)c(O)c1,Potency,[1],"inconclusive: 17.4 µM [cytotoxic, full curve]"
same,Potency,[3],"inconclusive: 62.2 µM [cytotoxic, single point]"
same,Potency,[7],"inconclusive: 55.5 µM [cytotoxic, single point]"
Cc1ccc(OC(=O)c2ccccc2O)cc1,Potency,[1],inactive
same,"activity change, negative = inhibition",[3],inconclusive: 26.6%
O=[Se](O)O,Potency,[1],active: 24.4 µM
same,Potency,[2],active: 8.64 µM and inactive
same,Potency,[7],"inconclusive: 0.47 µM [rising, single point]"
Clc1cc(Cl)nc(Cl)n1,Potency,[5],"inconclusive: 69.5 µM [activator, single point]"
same,Potency,[8],"inconclusive: 69.5 µM [falling, single point]"
COc1cccc(N)c1,activation,[1],inconclusive: 16.6% [at 95.1 µM]
same,"ratio activity, negative = MMP loss",[2],inconclusive: 2.18% [at 95.3 µM]
same,"activity change, negative = inhibition",[3],inconclusive: -29.8% [at 78.9 µM]
CCCCC(CC)COC(=O)c1ccccc1C(=O)O (configuration not stated),Potency,[1],"inconclusive: 48.6 µM [fluorescent, partial curve]"
same,Potency,[2],inconclusive: 2.78 µM [activator]
same,Potency,[3],active: 39.6 µM
same,Potency,[7],"inconclusive: 0.498 µM [rising, single point]"
CCCCC1C(=O)N(c2ccccc2)N(c2ccc(O)cc2)C1=O (configuration not stated),Potency,[1],active: 12.7 µM
same,"ratio activity, negative = MMP loss",[2],inconclusive: -36.6% [at 39.1 µM]
same,"activity change, negative = inhibition",[3],inconclusive: -17.1% [at 27 µM]
same,Potency,[7],inactive
CC(=O)Oc1ccc(C2(c3ccc(OC(C)=O)cc3)Oc3ccccc3NC2=O)cc1,Potency,[1],active: 2.37 µM
same,Potency,[2],active: 23.7 µM
same,Potency,[3],active: 19 µM
same,Potency,[7],"inconclusive: 15.1 µM [cytotoxic, partial curve, poor fit]"
CCCCCCC(CCCCCCCCCCC(=O)OCC(COC(C)=O)OC(C)=O)OC(C)=O (configuration not stated),Potency,[1],inactive
same,"activity change, negative = inhibition",[3],inconclusive: 3.58%
c1ccc(-c2ccccn2)nc1,Potency,[1],inactive
same,Potency,[3],"inconclusive: 61.6 µM [activator, single point]"
[Cl][In]([Cl])[Cl],Potency,[1],active: 61.1 µM
same,Potency,[2],"inconclusive: 2.66 µM [activator, partial curve] and inactive and inconclusive: 1.09 µM [activator, full curve, poor fit]"
same,Potency,[3],"inconclusive: 9.77 µM [inhibitor, full curve]"
same,"activity change, negative = inhibition",[3],inconclusive: -31.2% and inconclusive: -29.3%
O=C=Nc1ccc(Cl)c(Cl)c1,Potency,[5],"inconclusive: 13.5 µM [activator, partial curve, poor fit]"
same,Potency,[8],"inconclusive: 21.3 µM [falling, full curve, poor fit]"
same,Potency,[9],"inconclusive: 53.6 µM [cytotoxic, partial curve, poor fit]"
same,Potency,[2],active: 7.57 µM
same,Potency,[4],"inconclusive: 10.8 µM [activator, full curve]"
same,Potency,[3],"inconclusive: 19.2 µM [activator, partial curve]"
CC1=C(/C=C/C(C)=C/C=C/C(C)=C/C(=O)O)C(C)(C)CCC1,Potency,[5],"inconclusive: 37.6 µM [activator, partial curve, poor fit] and inconclusive: 17.2 µM [activator, full curve, poor fit]"
same,Potency,[10],"inconclusive: 68.5 µM [cytotoxic, single point]"
same,Potency,[8],"inconclusive: 30.7 µM [falling, partial curve, poor fit] and inconclusive: 68.5 µM [falling, partial curve, poor fit]"
same,Potency,[2],inconclusive: 68.5 µM [inhibitor]
same,activation,[4],inconclusive: 19.5% and inconclusive: 3.61% and inconclusive: 18.7%
same,Potency,[3],active: 54.9 µM
same,Potency,[7],"inconclusive: 61.7 µM [cytotoxic, single point]"
N[C@@H](Cc1cc(I)c(Oc2cc(I)c(O)c(I)c2)c(I)c1)C(=O)O,Potency,[1],inactive
same,"ratio activity, negative = MMP loss",[2],inconclusive: 12.7% and inconclusive: 20.3%
same,"activity change, negative = inhibition",[3],inconclusive: -50.6% and inconclusive: -20.5%
same,"viability change, negative = cytotoxic",[7],inconclusive: 3.19%
CC(=O)[C@]1(O)Cc2c(O)c3c(c(O)c2[C@@H](O[C@H]2C[C@H](N)[C@H](O)[C@H](C)O2)C1)C(=O)c1ccccc1C3=O,Potency,[5],active: 0.841 µM
same,Potency,[10],"inconclusive: 0.335 µM [cytotoxic, full curve, poor fit]"
same,Potency,[2],active: 5.55 µM
same,Potency,[11],"inconclusive: 14.1 µM [fluorescent, single point]"
same,Potency,[12],"inconclusive: 12.6 µM [fluorescent, partial curve, poor fit]"
same,Potency,[4],active: 23.9 µM [inconclusive]
same,Potency,[3],inconclusive: 4.77 µM [cytotoxic]
same,Potency,[7],active: 3.01 µM
c1cc(OCC2CO2)cc(OCC2CO2)c1 (configuration not stated),Potency,[5],inactive
same,Potency,[10],"inconclusive: 68 µM [cytotoxic, single point]"
same,Potency,[8],"inconclusive: 60.6 µM [falling, partial curve, poor fit]"
same,Potency,[3],inconclusive: 54.5 µM [inhibitor]
same,Potency,[7],"inconclusive: 54.5 µM [cytotoxic, single point]"
CCOC(=O)Cn1cccc1-c1nc(-c2ccc(OC)cc2)c(-c2ccc(OC)cc2)s1,Potency,[1],active: 29.8 µM
same,Potency,[3],"inconclusive: 21.3 µM [cytotoxic, partial curve, poor fit]"
CC1=CCC(C(C)(C)O)CC1 (configuration not stated),Potency,[1],"inconclusive: 77 µM [falling, single point]"
same,Potency,[7],inactive
CNC[C@H](O)[C@@H](O)[C@H](O)[C@H](O)CO,Potency,[5],inactive
CN(C)CCC=C1c2ccccc2C=Cc2ccccc21,Potency,[1],inconclusive: 33.5 µM [activator]
same,"activity change, negative = inhibition",[3],inconclusive: 13.8%
CC(=O)C1C(=O)C=C(C)OC1=O (configuration not stated),Potency,[1],inactive
same,Potency,[3],inactive
CC(C)C[C@H](NC(=O)[C@H](CCc1ccccc1)NC(=O)CN1CCOCC1)C(=O)N[C@@H](Cc1ccccc1)C(=O)N[C@@H](CC(C)C)C(=O)[C@@]1(C)CO1,Potency,[1],active: 0.0668 µM
same,"ratio activity, negative = MMP loss",[2],inconclusive: 11.6%
same,Potency,[3],inconclusive: 0.0535 µM [activator]
same,Potency,[7],active: 5.35 µM
COc1cc(C(=O)NS(=O)(=O)c2ccccc2C)ccc1Cc1cn(C)c2ccc(NC(=O)OC3CCCC3)cc12,Potency,[1],"inconclusive: 6.68 µM [cytotoxic, full curve]"
same,Potency,[2],active: 9.44 µM
same,Potency,[3],active: 12 µM
same,Potency,[7],"inconclusive: 21.3 µM [cytotoxic, partial curve, poor fit]"
CCOC(=O)/C=C/C(=O)OCC,Potency,[1],inactive
same,Potency,[2],inactive
same,Potency,[7],"inconclusive: 21.9 µM [rising, single point]"
CCc1cc(C(C)(C)C)c(O)c(C(C)(C)C)c1,Potency,[1],"inconclusive: 15.5 µM [cytotoxic, full curve] and inconclusive: 34.4 µM [fluorescent, partial curve, poor fit]"
same,Potency,[2],active: 15.5 µM and active: 30.6 µM
same,Potency,[3],inconclusive: 55.5 µM [cytotoxic]
same,Potency,[7],inactive
OC1CCCCC1,Potency,[1],inactive
same,Potency,[3],inactive
COc1ccccc1N1CCN(CC(O)COc2cccc3ccccc23)CC1 (configuration not stated),Potency,[1],"inconclusive: 29.8 µM [falling, partial curve, poor fit]"
same,Potency,[2],inconclusive: 26.6 µM [activator]
same,"activity change, negative = inhibition",[3],inconclusive: 38.6%
C=CC(=O)OCCCCCCCCCC,activation,[1],inconclusive: 4.63%
same,Potency,[2],inactive
same,Potency,[7],inactive
CCCCC/C=C\C=C\C(=O)OCC,Potency,[1],inconclusive: 63.7 µM [cytotoxic]
same,Potency,[3],active: 45.5 µM
same,Potency,[7],"inconclusive: 57.2 µM [cytotoxic, single point]"
CC(C)(C(=O)c1cccnc1)c1cccnc1,Potency,[1],inactive
same,Potency,[4],inactive
CC1(C)S[C@@H]2[C@H](NC(=O)C(c3ccccc3)S(=O)(=O)O)C(=O)N2[C@H]1C(=O)O (some centres not stated),Potency,[1],inactive
same,Potency,[3],inactive
same,Potency,[7],inactive
